The record followed here is publication PMC12759081, “S-phase PARylation of microprotein RSMC enhances the function of Sororin in sister chromatid cohesion” (The EMBO Journal, 2025).

The target of the test is T1, 6×His-Flag-Sororin (human, UniProt Q96FF9).
T1 construct: Sororin (CDCA5), Flag-Sororin cloned into pET28a; primers run from the start codon to the stop codon; also called 6×His-Flag-tagged Sororin; 6×His-Flag-Sororin WT; source: E. coli BL21 (DE3), purified (Ni2+ Sepharose)
The test is described as follows: pull-down; 1 μg 6×His-Flag-Sororin immobilised on anti-Flag M2 agarose, 1 μg GST-RSMC, its mutants or GST added; 50 mM Tris pH 8.0, 150 mM NaCl, 0.05% Triton X-100, 4 °C 2 h; SDS-PAGE and Coomassie staining. As to conditions: both partners purified.

Sequence of 6×His-Flag-Sororin (Q96FF9 whole entry): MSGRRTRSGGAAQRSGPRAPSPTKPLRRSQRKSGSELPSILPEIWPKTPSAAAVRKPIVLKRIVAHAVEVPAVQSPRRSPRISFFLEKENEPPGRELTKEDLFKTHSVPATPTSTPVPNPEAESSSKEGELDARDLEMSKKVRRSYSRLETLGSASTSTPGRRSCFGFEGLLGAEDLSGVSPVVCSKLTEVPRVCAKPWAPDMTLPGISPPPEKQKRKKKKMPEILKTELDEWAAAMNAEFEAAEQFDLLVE

B1: GST-RSMC-10A (natural protein, human, UniProt E9PRG8, looked up)
chain: MGAPGGKINRPRTELKKKLFKRRRVLNREAALAHAVVGAVIDQGLITRHHLKKRASSARANITLAGKKRRKLLQQIRLAQKEKTAMAVAAPSKPARTAEPQLKRQKKTKAPQAVAMKDLEDES
notes: RSMC (C11ORF98-encoded microprotein) with ten alanine substitutions; source: bacterial expression (pGEX-6p-1, IPTG), purified (Glutathione Sepharose 4B)
For B1, the binding result is “binds”.
